In publication PMC4336329 (PLoS ONE, 2015):
The campaign covered roughly 310,000 compounds. About 14,000 (4.5%) showed an effect of 50% or more. The effect is printed as a negative number. Some of the results follow.

Each molecule was assayed against human ether-à-go-go-related gene (hERG) potassium channel (human, UniProt Q12809) (assay: primary screen, population patch clamp on CHO cells stably expressing hERG).
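Further: peak tail current of the secondary pulse compared with the same well before compound.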

Sequence of human ether-à-go-go-related gene (hERG) potassium channel (Q12809 whole entry, looked up): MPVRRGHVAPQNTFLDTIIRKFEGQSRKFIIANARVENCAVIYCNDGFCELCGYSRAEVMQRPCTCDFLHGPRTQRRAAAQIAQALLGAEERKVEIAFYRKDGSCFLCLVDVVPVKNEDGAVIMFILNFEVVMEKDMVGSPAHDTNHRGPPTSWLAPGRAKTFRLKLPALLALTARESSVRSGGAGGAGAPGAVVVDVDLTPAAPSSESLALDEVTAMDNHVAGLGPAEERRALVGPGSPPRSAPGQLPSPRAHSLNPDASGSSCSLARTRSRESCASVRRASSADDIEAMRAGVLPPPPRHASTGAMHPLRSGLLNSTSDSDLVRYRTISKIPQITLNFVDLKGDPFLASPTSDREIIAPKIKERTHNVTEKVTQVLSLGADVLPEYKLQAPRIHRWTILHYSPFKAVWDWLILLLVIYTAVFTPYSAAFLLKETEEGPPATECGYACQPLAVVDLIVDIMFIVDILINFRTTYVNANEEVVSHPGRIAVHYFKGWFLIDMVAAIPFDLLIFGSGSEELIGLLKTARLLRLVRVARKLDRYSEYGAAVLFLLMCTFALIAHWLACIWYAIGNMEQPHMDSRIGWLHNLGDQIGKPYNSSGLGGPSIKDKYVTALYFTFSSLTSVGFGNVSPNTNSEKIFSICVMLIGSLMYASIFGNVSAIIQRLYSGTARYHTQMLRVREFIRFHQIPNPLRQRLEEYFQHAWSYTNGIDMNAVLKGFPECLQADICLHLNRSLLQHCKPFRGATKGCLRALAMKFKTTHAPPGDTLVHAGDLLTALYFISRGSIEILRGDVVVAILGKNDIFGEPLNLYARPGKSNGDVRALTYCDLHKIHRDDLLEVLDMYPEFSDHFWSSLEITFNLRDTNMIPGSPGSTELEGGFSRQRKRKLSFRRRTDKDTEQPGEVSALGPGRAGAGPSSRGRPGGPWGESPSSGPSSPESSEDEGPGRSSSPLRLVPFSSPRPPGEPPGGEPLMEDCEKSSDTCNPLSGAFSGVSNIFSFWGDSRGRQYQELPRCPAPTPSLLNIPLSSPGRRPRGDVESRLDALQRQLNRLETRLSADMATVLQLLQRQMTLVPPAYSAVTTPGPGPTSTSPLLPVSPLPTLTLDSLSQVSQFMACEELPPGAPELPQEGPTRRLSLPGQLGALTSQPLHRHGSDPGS

| Compound | hERG current change (%, negative = inhibition) at 10uM [%] |
| --- | --- |
| Fc1ccc(/C=N/Nc2cc(N3CCOCC3)ncn2)cc1 | 15.4 |
| Cn1nc(C(F)(F)F)c(-c2ccccc2)c1NC(=O)CCC(=O)O | 11.9 |
| Cc1cc(-c2ccccc2)nc(Cl)c1C#N | 14.5 |
| CCOc1ccc2nc(N3CCCC(C(=O)NC4CCCC4)C3)sc2c1 (centres unmarked) | -0.903 |
| CC[n+]1c(/C=C/c2ccc(OC(C)=O)c(OC)c2)ccc2ccccc21.[I-] | -4.85 |
| C[N+]1(CC2COC3(CCCCC3)O2)CCCC1.[I-] (centres unmarked) | 9.24 |
| Cc1csc2nc(CNS(=O)(=O)c3cccnc3)cn12 | 3.04 |
| Cc1nc2c(=O)n(-c3ccc(F)c(Cl)c3)nc(C)c2s1 | 4.63 |
| CCOC(=O)N1CCN(S(=O)(=O)c2cc(Br)cnc2N)CC1 | -11.9 |
| COc1cc2c(cc1OC)CN(C(=O)C1CCN(S(=O)(=O)c3ccccc3F)CC1)CC2 | -8.59 |
| Cc1c(C2=CCN(S(=O)(=O)c3ccc(Cl)cc3)CC2)c2ccccc2n1C | 24.7 |
| COc1cccc(NC(=O)CSc2nnc(-c3cccs3)n2C)c1 | -16.6 |
| CCOCCCNC(=O)C(c1ccc(C)cc1)N(Cc1ccc2c(c1)OCO2)C(=O)c1cnccn1 (centres unmarked) | 2.11 |
| O=C(c1cc(-c2ccco2)nn1-c1cccc(Cl)c1)N1CCCCC1 | -37.4 |
| COc1ccccc1CN(C(=O)c1cnccn1)C(C(=O)NC1CCCCC1)c1cc(OC)c(OC)c(OC)c1 (centres unmarked) | 11.1 |
| O=C(O)c1ccc(-c2ccccc2Cl)o1 | 8.61 |
| Cc1cc(C)n(-c2ccc(C(=O)OCC(=O)N(CC(C)C)C3CCS(=O)(=O)C3)cc2)n1 (centres unmarked) | -0.661 |
| Cc1ccc(C)c(OCCCN2CCc3ccccc3C2)c1.Cl | -49.4 |
| CCN(C(=O)COC(=O)CNC(=O)c1ccc(C)c(C)c1)C1CCS(=O)(=O)C1 (centres unmarked) | -14 |

| Compound | hERG current change (%, negative = inhibition) at 10uM [%] |
| --- | --- |
| CCN(CC)C(=O)Cn1nc(-c2ccc(Cl)cc2)c2ccccc2c1=O | -34.3 |
| CCC(NC(=O)c1ccccc1NC(=O)c1ccccc1)C(=O)O (centres unmarked) | 7.75 |
| CC(C)C(=O)NS(=O)(=O)c1ccc(NS(C)(=O)=O)cc1 | -4.42 |
| CCOc1ncccc1C(=O)OCC(=O)N1CCN(S(=O)(=O)c2ccccc2)CC1 | -1.66 |
| CC(C)C[C@H](NC(=O)Nc1ccccc1F)C(=O)O | -4.48 |
| CC(C)c1ccc(NC(=O)C2C3C=CC4(CN(CCCN5CCOCC5)C(=O)C24)O3)cc1 (centres unmarked) | -16 |
| COc1cccc(CNC(=O)C(=O)NCC2OCCCN2S(=O)(=O)c2cc(C)ccc2C)c1 (centres unmarked) | -8.81 |
| CCOc1ccc(CNc2ccc3c(c2)ncn3C(C)(C)C)cc1 | -58.6 |
| Cc1cc(C(=O)OCC(=O)NCCCN2CCCC2=O)c2ccccc2n1 | 13.1 |
| CC(=O)Nc1cc(ON=C(C)C)cc([N+](=O)[O-])c1 | 4.63 |
| CCCCNC(=O)[C@@H]1CSC2c3ccc(OC)c(OC)c3C(=O)N21 (some centres unmarked) | 13.5 |
| Nc1ccc(CCc2ccc(N)cc2)cc1 | 16.8 |
| Cl.Nc1ccn([C@@H]2O[C@H](CO)[C@@H](O)[C@@H]2O)c(=O)n1 | 12.4 |
| Cc1c(C=O)c2ccccn2c1C(=O)c1ccc(F)cc1 | -28.7 |
| O=C(Nc1ccc(OC(F)F)cc1)Nc1cccc(C(F)(F)F)c1 | 6.56 |
| Cc1ccc(S(=O)(=O)N(C)C)cc1NC(=O)C(C)N(C)Cc1sccc1C (centres unmarked) | -16.1 |
| Cc1ccnc(NC(=O)C2CCCN(S(=O)(=O)c3cnc[nH]3)C2)c1 (centres unmarked) | 7.51 |
| Cc1c(NC(=O)OCCNC(=O)COc2ccc(Cl)cc2Cl)sc(=S)n1C | -5.51 |
| Cc1cc(C)c(C#N)c(Nc2ccccc2F)n1 | 11.1 |

| Compound | hERG current change (%, negative = inhibition) at 10uM [%] |
| --- | --- |
| COc1ccc(OCc2cccc(C(=O)Nn3cc([N+](=O)[O-])cn3)c2)cc1 | -15.6 |
| O=C(CN1CCN(Cc2ccc3c(c2)OCO3)CC1)Nc1cc(S(=O)(=O)N2CCCC2)ccc1Cl | -18.8 |
| CC1CCC(NC(=O)CNC(=O)c2ccc3ccccc3c2)CC1 (centres unmarked) | 20.2 |
| CCn1cc(C(=O)O)c(=O)c2cc(F)c(N3CCN(S(=O)(=O)c4ccc(Br)cc4)CC3)cc21 | -8.19 |
| CC(C)Cc1cc(C(=O)N2CCN(C(c3ccccc3)c3ccccc3)CC2)no1 | 0.0803 |
| Cc1ccc(C)c(OCc2nnc(SCC(=O)NCc3ccc4c(c3)OCO4)o2)c1 | -21.5 |
| O=C(NCc1ccccc1)c1ccc(=O)oc1 | 0.549 |
| NC(=O)CSc1oc(-c2ccco2)nc1S(=O)(=O)c1ccc(Cl)cc1 | -28.1 |
| Cc1ccc(C(=O)OCC(=O)NCC2COc3ccccc3O2)cc1 (centres unmarked) | 17 |
| CCN1/C(=C2\C(=O)N(c3ccccc3)N=C2C)C=Cc2cc(C)ccc21 | -40 |
| CC(=O)c1c(CSc2ccccc2)oc2ccc(O)c(CN(C)C)c12.Cl | -70.8 |
| Cc1ccc(NC(=O)CN(C)S(=O)(=O)c2cccc3cccnc23)cc1F | -37 |
| O=C(Nc1ccccc1C(F)(F)F)c1cc(-c2ccccc2O)on1 | 3.43 |
| COc1ccc(OC)c(/C=N/NC(=O)C(=O)NCc2cccnc2)c1 | 16.2 |
| COc1ccc(C(=O)NCC(=O)OCC(=O)Nc2c(C)n(C)n(-c3ccccc3)c2=O)cc1 | 6.68 |
| CCNC(=O)C/C(C)=N/NC(=O)C(=O)Nc1ccc(CC)cc1 | -11.5 |
| CC(C)CNC(=O)c1ccccc1NC(=O)Nc1ccccc1 | 7.14 |
| O=C(CN1C(=O)C2CC=CCC2C1=O)Nc1nnc(SCc2c(Cl)cccc2Cl)s1 (centres unmarked) | 6.1 |
